Counter-ions that a name gives are not always drawn. ± gives the standard deviation of the averaged measurements. The full ranking holds about 1,300 compounds; the median of “normalised cell viability” is about 1, and the lowest 2% start at about 0.14. The list shows a part of the results.

This assay concerns V-C8 (BRCA2-deficient hamster cells). The assay can be described thus: normalised cell viability (fraction of plate median); higher = more viable cells (less toxic). As to conditions: 5 µM. An outline of the steps:
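Library drugs, held as 10 mM stocks in DMSO, were diluted to 5 μM in 100 μl medium and added to 96-well plates of V-C8 hamster cells, either lacking BRCA2 or with BRCA2 restored, 24 h after seeding. Plates ran for 3 days (screen 1) or 6 days (screen 2), alongside solvent-only wells. Viability came from a resazurin readout, median-plate normalised, as the mean of triplicate wells.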

In the case of `Clc1ccc(C(Cn2ccnc2)OCc2c(Cl)cccc2Cl)c(Cl)c1` (configuration not stated) [Isoconazole], the normalised cell viability turned out to be 1.12 ± 0.04 (treatment time: 3 days) and 1.09 ± 0.045 (treatment time: 6 days).

For `Nc1nc(F)nc2c1ncn2[C@@H]1O[C@H](CO)[C@@H](O)[C@@H]1O` [Fludarabine], the normalised cell viability came to 1 ± 0.052 (treatment time: 3 days) and 1.01 ± 0.1 (treatment time: 6 days).

In turn, `CC[C@H]1OC(=O)[C@H](C)[C@@H](O[C@H]2C[C@@](C)(OC)[C@@H](O)[C@H](C)O2)[C@H](C)[C@@H](O[C@@H]2O[C@H](C)C[C@H](N(C)C)[C@H]2O)[C@](C)(O)C[C@@H](C)/C(=N\OCOCCOC)[C@H](C)[C@@H](O)[C@]1(C)O` [Roxithromycin] yielded a normalised cell viability (treatment time: 3 days) of 1 ± 0.058 and a normalised cell viability (treatment time: 6 days) of 0.958 ± 0.06.

`Nc1nc(=O)c2nc(CNc3ccc(C(=O)N[C@@H](CCC(=O)O)C(=O)O)cc3)cnc2[nH]1` [Folic acid]: the normalised cell viability was 1.1 ± 0.047 (treatment time: 3 days) and 0.913 ± 0.041 (treatment time: 6 days).

For the compound `CC(=O)N[C@@H](CC(C)C)C(=O)O` [N-Acetyl-L-leucine], the normalised cell viability runs as follows: (treatment time: 3 days) 1.01 ± 0.13; (treatment time: 6 days) 1.06 ± 0.022.

With `CC(C)NCC(O)COc1ccc(COCCOC(C)C)cc1` (configuration not stated) [Bisoprolol fumarate], the normalised cell viability (treatment time: 3 days) is 1.04 ± 0.044 and the normalised cell viability (treatment time: 6 days) was determined as 1.16 ± 0.049.

For `Nc1nc(=S)c2ncn([C@@H]3O[C@H](CO)[C@@H](O)[C@H]3O)c2[nH]1` [Thioguanosine], the normalised cell viability reads like this: (treatment time: 3 days) 0.307 ± 0.013; (treatment time: 6 days) 0.28 ± 0.017.

Compound `O=C1CN2Cc3c(ccc(Cl)c3Cl)N=C2N1` [Anagrelide] gave a normalised cell viability (treatment time: 3 days) of 1.01 ± 0.077 and a normalised cell viability (treatment time: 6 days) of 1.03 ± 0.054.

`CO/N=C(\C(=O)N[C@@H]1C(=O)N2C(C(=O)O)=C(COC(N)=O)CS[C@H]12)c1ccco1` [Cefuroxime sodium salt] yielded a normalised cell viability (treatment time: 3 days) of 0.961 ± 0.015 and a normalised cell viability (treatment time: 6 days) of 0.933 ± 0.029.

As to `O=C(NCC(O)CO)c1c(I)c(C(=O)NCC(O)CO)c(I)c(N(CCO)C(=O)CO)c1I` (configuration not stated) [Ioversol], the normalised cell viability was found to be 0.969 ± 0.05 (treatment time: 3 days) and 1 ± 0.089 (treatment time: 6 days).

`Nc1ccc(S(=O)(=O)Nc2ccnn2-c2ccccc2)cc1` [Sulfaphenazole]: the normalised cell viability by setting is: (treatment time: 3 days) 1.01 ± 0.011; (treatment time: 6 days) 1.03 ± 0.031.

`CC1Cc2ccccc2N1NC(=O)c1ccc(Cl)c(S(N)(=O)=O)c1` (configuration not stated) [Indapamide] yielded a normalised cell viability (treatment time: 3 days) of 1.02 ± 0.043 and a normalised cell viability (treatment time: 6 days) of 1.04 ± 0.025.

Turning to `Cc1cc(CC(=O)O)n(C)c1C(=O)c1ccc(Cl)cc1` [Zomepirac sodium salt], the normalised cell viability by setting is: (treatment time: 3 days) 1.12 ± 0.033; (treatment time: 6 days) 0.958 ± 0.12.

In the case of `CC[C@H]1OC(=O)[C@H](C)[C@@H](O[C@H]2C[C@@](C)(OC)[C@@H](O)[C@H](C)O2)[C@H](C)[C@@H](O[C@@H]2O[C@H](C)C[C@H](N(C)C)[C@H]2O)[C@](C)(O)C[C@@H](C)[C@@H]2N[C@@H](COCCOC)O[C@H]([C@H]2C)[C@]1(C)O` [Dirithromycin], the normalised cell viability runs as follows: (treatment time: 3 days) 0.966 ± 0.052; (treatment time: 6 days) 1 ± 0.056.

Regarding `O=C1CC2(CCCC2)CC(=O)N1CCCCN1CCN(c2ncccn2)CC1` [Buspirone hydrochloride], the normalised cell viability by setting is: (treatment time: 3 days) 1 ± 0.036; (treatment time: 6 days) 1.06 ± 0.14.

As to `CC(C)CC(=O)N[C@H](C(=O)N[C@H](C(=O)N[C@@H](CC(C)C)[C@@H](O)CC(=O)N[C@@H](C)C(=O)N[C@@H](CC(C)C)[C@@H](O)CC(=O)O)C(C)C)C(C)C` [Pepstatin A], the normalised cell viability is, setting by setting: (treatment time: 3 days) 0.913 ± 0.017; (treatment time: 6 days) 0.847 ± 0.067.

On to `C[C@H](O)C(=O)Nc1c(I)c(C(=O)NC(CO)CO)c(I)c(C(=O)NC(CO)CO)c1I` [Iopamidol], for which the normalised cell viability was found to be 0.952 ± 0.093 (treatment time: 3 days) and 1.09 ± 0.06 (treatment time: 6 days).

On to `C[C@H]1C[C@H]2[C@@H]3CCC4=CC(=O)C=C[C@]4(C)[C@@]3(F)[C@@H](O)C[C@]2(C)[C@@]1(O)C(=O)CO` [Betamethasone], for which the normalised cell viability by setting is: (treatment time: 3 days) 0.504 ± 0.018; (treatment time: 6 days) 0.604 ± 0.032.

In turn, `Oc1ccc(OCc2ccccc2)cc1` [Monobenzone] had a normalised cell viability (treatment time: 3 days) of 0.591 ± 0.076 and a normalised cell viability (treatment time: 6 days) of 0.711 ± 0.019.

For the compound `CC(C(=O)O)c1ccc(N2Cc3ccccc3C2=O)cc1` (configuration not stated) [Indoprofen], the normalised cell viability reads like this: (treatment time: 3 days) 1.012 ± 0.0016; (treatment time: 6 days) 1.08 ± 0.013.

In the case of `CC1=Nc2ccc(Cl)cc2S(=O)(=O)N1` [Diazoxide], the normalised cell viability stood at 0.95 ± 0.024 (treatment time: 3 days) and 1.01 ± 0.054 (treatment time: 6 days).

Turning to `C=C1/C(=C\C=C2/CCC[C@]3(C)[C@@H]([C@H](C)/C=C/[C@@H](O)C4CC4)CC[C@@H]23)C[C@@H](O)C[C@@H]1O` [Calcipotriene], the normalised cell viability is, setting by setting: (treatment time: 3 days) 1.02 ± 0.034; (treatment time: 6 days) 0.891 ± 0.12.

In the case of `Cc1ccc(Cl)c(Nc2ccccc2C(=O)O)c1Cl` [Meclofenamic acid sodium salt monohydrate], the normalised cell viability (treatment time: 3 days) worked out at 1.08 ± 0.077 and the normalised cell viability (treatment time: 6 days) was found to be 0.986 ± 0.036.

Regarding `O=C(NCCO[N+](=O)[O-])c1cccnc1` [Nicorandil], the normalised cell viability stood at 1.15 ± 0.018 (treatment time: 3 days) and 1.32 ± 0.37 (treatment time: 6 days).

Regarding `COC(=O)Nc1nc2ccc(SC(C)C)cc2[nH]1` [Methiazole], the normalised cell viability by setting is: (treatment time: 3 days) 0.214 ± 0.0082; (treatment time: 6 days) 0.221 ± 0.025.

Regarding `CN(C)CCOc1ccc(/C(=C(/CCCl)c2ccccc2)c2ccccc2)cc1` [Toremifene], the normalised cell viability is, setting by setting: (treatment time: 3 days) 0.716 ± 0.067; (treatment time: 6 days) 0.875 ± 0.052.

Consider `CCN1CCN(C(=O)N[C@@H](C(=O)N[C@@H]2C(=O)N3C(C(=O)O)=C(CSc4nnnn4C)CS[C@H]23)c2ccc(O)cc2)C(=O)C1=O` [Cefoperazone dihydrate], for which the normalised cell viability by setting is: (treatment time: 3 days) 0.989 ± 0.056; (treatment time: 6 days) 1.08 ± 0.05.

For `COCCOC(=O)C1=C(C)NC(C)=C(C(=O)OC/C=C/c2ccccc2)C1c1cccc([N+](=O)[O-])c1` (configuration not stated) [Cilnidipine], the normalised cell viability (treatment time: 3 days) amounted to 0.98 ± 0.03 and the normalised cell viability (treatment time: 6 days) amounted to 1.01 ± 0.015.

`CCCCNc1ccc(C(=O)OCCOCCOCCOCCOCCOCCOCCOCCOCCOC)cc1` [Benzonatate]: the normalised cell viability worked out at 0.983 ± 0.021 (treatment time: 3 days) and 0.97 ± 0.027 (treatment time: 6 days).

On to `CCn1nc(C(=O)O)c(=O)c2cc3c(cc21)OCO3` [Cinoxacin], for which the normalised cell viability came to 1.02 ± 0.067 (treatment time: 3 days) and 1.01 ± 0.033 (treatment time: 6 days).

In the case of `Cc1cc(/C=C/c2ccc3cc(N(C)C)ccc3[n+]2C)c(C)n1-c1ccccc1` [Pyrvinium pamoate], the normalised cell viability turned out to be 0.132 ± 0.0063 (treatment time: 3 days) and 0.172 ± 0.012 (treatment time: 6 days).
